In all, about 310,000 compounds went through this assay and about 2,200 (0.71%) showed an effect of 50% or more. Effects have a minus sign here. This is one part of the list.
Target: human ether-à-go-go-related gene (hERG) potassium channel (human, UniProt Q12809)
Assay: primary screen, population patch clamp on CHO cells stably expressing hERG

Sequence of human ether-à-go-go-related gene (hERG) potassium channel (Q12809 whole entry, looked up): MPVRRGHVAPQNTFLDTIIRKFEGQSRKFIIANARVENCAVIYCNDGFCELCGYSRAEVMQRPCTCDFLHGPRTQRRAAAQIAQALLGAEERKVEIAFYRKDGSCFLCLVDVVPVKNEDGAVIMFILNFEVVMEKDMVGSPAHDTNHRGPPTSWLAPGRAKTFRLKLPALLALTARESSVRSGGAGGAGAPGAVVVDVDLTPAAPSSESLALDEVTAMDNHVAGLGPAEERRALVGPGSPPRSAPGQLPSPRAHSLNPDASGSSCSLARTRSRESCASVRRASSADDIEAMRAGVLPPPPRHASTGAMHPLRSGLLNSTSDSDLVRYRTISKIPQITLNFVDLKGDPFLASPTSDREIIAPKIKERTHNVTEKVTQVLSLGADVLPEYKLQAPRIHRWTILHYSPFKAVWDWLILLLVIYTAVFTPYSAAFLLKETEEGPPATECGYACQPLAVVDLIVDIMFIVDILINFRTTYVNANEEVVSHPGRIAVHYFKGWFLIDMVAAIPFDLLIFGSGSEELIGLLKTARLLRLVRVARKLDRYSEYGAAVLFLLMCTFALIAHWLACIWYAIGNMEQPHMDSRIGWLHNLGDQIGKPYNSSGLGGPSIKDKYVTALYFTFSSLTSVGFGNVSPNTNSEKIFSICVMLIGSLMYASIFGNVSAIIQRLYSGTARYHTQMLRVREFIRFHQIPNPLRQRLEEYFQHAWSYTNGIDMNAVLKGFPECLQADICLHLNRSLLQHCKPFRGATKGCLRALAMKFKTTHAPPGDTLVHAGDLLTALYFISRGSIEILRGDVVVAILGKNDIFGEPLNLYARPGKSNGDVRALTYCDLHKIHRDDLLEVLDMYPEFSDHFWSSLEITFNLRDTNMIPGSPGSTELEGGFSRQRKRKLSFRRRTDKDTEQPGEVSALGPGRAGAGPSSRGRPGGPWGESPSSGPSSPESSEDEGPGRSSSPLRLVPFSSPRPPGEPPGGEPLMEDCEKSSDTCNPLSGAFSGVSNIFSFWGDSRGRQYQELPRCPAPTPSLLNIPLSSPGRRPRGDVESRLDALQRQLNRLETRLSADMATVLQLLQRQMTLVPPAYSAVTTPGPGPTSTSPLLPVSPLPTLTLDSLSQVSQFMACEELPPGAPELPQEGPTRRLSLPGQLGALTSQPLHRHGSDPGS

SMILES	hERG current change (%, negative = inhibition) at 1uM
C(=N\Nc1nncn1/N=C/c1ccco1)/c1ccco1	5.14%
O=C1CN(S(=O)(=O)c2ccc(Cl)cc2)c2ccccc2N1	7.61%
CC(=O)c1ccc(-n2nnnc2SCC(=O)N2CCN(C(=O)c3ccco3)CC2)cc1	-19.7%
COc1ccc2c(c1)c1ncn(CC3CCCO3)c(=O)c1n2C (stereo not shown)	9.57%
O=C(Cn1c(-c2cncs2)nc2ccccc21)NCCc1ccccc1	7.72%
CC(=O)Nc1cccc(Nc2nc(-c3ccccc3)nc3ccccc23)c1	3.93%
CCCn1cc(C(CC(=O)O)C(=O)O)c2ccccc21 (stereo not shown)	-0.584%
O=C(NCCCN1CCOCC1)c1ccc(NS(=O)(=O)c2cccc([N+](=O)[O-])c2)cc1	-21.1%
CC1(C)OC(=O)N(CCC(=O)Nc2cccc(F)c2)C1(C)O (stereo not shown)	4.7%
COCC1CCCN(C(=O)c2ccc(OC3CCN(Cc4ccccn4)CC3)cc2)C1 (stereo not shown)	10.3%
O=C(CNC(=O)OCc1ccccc1)NC1CCCCCCC1	6.4%
CN1CCC(OC(=O)c2ccc(Br)cc2)CC1.Cl	-14.7%
COc1cc(NC(=O)CSc2nc(=O)n(CCN3CCOCC3)c3c2CCCC3)cc(OC)c1	-0.157%
COc1cc(NC(=O)C(C)N2CCN(C(=O)C3CC3)CC2)cc(OC)c1 (stereo not shown)	0.782%
Br.Cc1ccccc1Cn1c(=N)n(CC(=O)c2ccc([N+](=O)[O-])cc2)c2ccccc21	0.624%
Cc1ccc(-c2noc(CCC(=O)NCC3CCN(Cc4cccc(C)c4)CC3)n2)cc1	-17.1%
O=C(Nc1ccc(-n2ccc(C(F)(F)F)n2)cc1)c1cccs1	10.8%
Cc1cc(-c2nnc(SCC(=O)Nc3ccccn3)o2)no1	17%
CCOC(=O)C1=C(SCC)c2cc3c(n2C1=O)CCCC3	8.72%
COc1ccc(NC(=O)N(CCc2ccccc2)Cc2cc3c(C)cc(C)cc3[nH]c2=O)cc1	14.1%
O=C(/C=C/c1ccccc1)NNc1ccc(Cl)cc1	6.93%
COc1cc(NC(=O)COC(=O)CC(C)(C)C)c(C)cc1[N+](=O)[O-]	2.73%

SMILES	hERG current change (%, negative = inhibition) at 1uM
CCOc1ccccc1C1C(C#N)=C(N)SC(N)=C1C#N	14%
COc1ccc(N2C3=[N+](CCCC3)CC2(C)O)cc1.[Br-] (stereo not shown)	-5.27%
CC1CCCN(S(=O)(=O)c2ccc(NC(=O)C3CC(=O)N(C(C)(C)C)C3)cc2)C1 (stereo not shown)	0.456%
CCC(SC1=NCCS1)C(=O)Nc1nnc(-c2ccccc2OC)s1 (stereo not shown)	7.9%
COc1ccc(NS(=O)(=O)c2ccc(OC)c(NC(=O)CNC(=O)c3ccc(OC)cc3)c2)cc1	2.4%
COc1cc(/C=N/NC(=O)c2ccc(NC(=O)C3CCCCC3)cc2)ccc1O	18.5%
Cc1sc(NC(=O)c2ccc(=O)n(C)n2)nc1-c1ccccc1	11%
Cc1c(CCOC(=O)c2cc([N+](=O)[O-])cc([N+](=O)[O-])c2)sc[n+]1CC(=O)c1ccccc1.[Cl-]	2.06%
CCOC(=O)c1[nH]cnc1C(=O)Nc1cccc(Cl)c1	15.6%
COc1cc2ccccc2cc1C(=O)N(CCN(C)C)c1nc2c(F)cc(F)cc2s1.Cl	12.7%
Cc1cc(SCc2ccc(Cl)cc2)nc(=O)[nH]1	14.7%
CCN(CC)S(=O)(=O)c1cc(NC(=O)CN2CCN(c3ccccn3)CC2)ccc1C	-2.35%
CCCCn1c(N)c(N(CCOC)C(=O)c2cccc(-n3cnnn3)c2)c(=O)[nH]c1=O	-0.783%
CC(=O)Nc1ccc2c(c1)nc(CCNC(=O)c1ccco1)n2C	14.9%
Cc1cccc(N2CC(C(=O)Nc3nnc(SCCN4CCOCC4)s3)CC2=O)c1 (stereo not shown)	11.3%
COc1cc(OC)cc(C(=O)N2CCN(C(=O)c3ccc(-c4ccccc4)cc3)CC2)c1	-9.78%
S=c1nc(COc2ccccc2)[nH]c2ccccc12	14%
COc1ccc(-c2cn(CCc3c[nH]c4ccccc34)nn2)cc1	7.02%
Cc1ncoc1C(=O)NC1CC(C)(C)Cc2c1cnn2-c1ccccc1 (stereo not shown)	-3.92%
COc1ccc(/C(=N\O)c2nccc3cc(OC)c(OC)cc23)cc1OC	15.7%
Cc1ccc(NC2c3ncccc3C(=O)N2Cc2ccc(F)cc2)cc1 (stereo not shown)	-8.67%

Reference: PMC4336329 (PLoS ONE, 2015)
